Measured values taken from the supplement of paper PMC3334620.
Over roughly 33,000 sequences, “E-score (-0.5 to 0.5)” has its median near -0.056; the highest 2% begin near 0.38. The list shows a part of the results.

Target: Stb4 (UniProt P50104)
Assay: PBM E-score (8-mer binding enrichment) (E-score (-0.5 to 0.5)); higher = stronger / more preferred TF binding; most listed sequences are background and not binding sites
Details: protein concentration: 200 nM; construct: GST-DNA-binding domain
Experimental: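 Universal 'all 10-mer' protein binding microarrays (Agilent AMADID 015681) probed with GST-tagged S. cerevisiae TFs (full-length or DBD) made by in vitro transcription/translation (PURExpress), about 100-200 nM. Bound TF was detected with fluorescent anti-GST. Each ungapped 8-mer (which stands for itself and its reverse complement) is scored by the PBM enrichment score (E-score), a modified Wilcoxon-Mann-Whitney statistic from -0.5 to +0.5, computed with the Universal PBM Analysis Suite. Scale: above 0.35 generally sequence-specific binding.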

Row | Sequence | PBM E-score
1 | CTGTCGAC | -0.211
2 | GCAAGACA | -0.0633
3 | TGGCCCAA | -0.169
4 | CCACGGCG | -0.0429
5 | CCGGTGGA | 0.225
6 | AGTGATTG | -0.0135
7 | ACGAGTGG | -0.122
8 | ATTCTAGA | -0.113
9 | ACGTCGTA | -0.164
10 | ACGACACT | -0.149
11 | AGCCCATC | -0.0127
12 | ACAGTCGC | -0.315
13 | GGGCAGCA | -0.17
14 | CCGACCAA | 0.248
15 | AGGCTCGA | -0.126
16 | CCACTCTC | 0.0625
17 | TAAAACCA | -0.2
18 | ACGCGCTA | -0.0149
19 | ATCTGCGC | -0.133
20 | GCATGCAA | -0.123
21 | CAGGCAAG | -0.255
22 | CTTCAGTA | 0.00858

Row | Sequence | PBM E-score
23 | CTGCAGCA | -0.169
24 | CGCCGCCC | 0.0841
25 | AAGGTAGG | -0.0211
26 | AACGGTCT | -0.192
27 | AAACACTG | -0.0355
28 | TGGTGAAA | -0.0565
29 | CAGGTCAA | -0.193
30 | GGACGCCC | 0.14
31 | CGATCATA | 0.0494
32 | GAGGAAAA | 0.0135
33 | CCAGGTCG | -0.247
34 | TTAATGAA | -0.132
35 | CTATCAAC | 0.0348
36 | GCTTCCCA | 0.0205
37 | AAAGCTTC | 0.131
38 | ATATCGAT | -0.0304
39 | CTATGCTA | -0.202
40 | ATGTTGAC | 0.111
41 | CAGGGGGA | -0.429
42 | GAGTCTAC | -0.0685
43 | CCTTGCGC | -0.163
44 | CCTACACG | -0.216

Row | Sequence | PBM E-score
45 | CCAAAGGG | -0.157
46 | ACAGCAGA | -0.197
47 | GGACATCC | 0.319
48 | CAACTCTC | -0.0369
49 | CCAATCCC | 0.112
50 | AAGTTAAC | 0.0221
51 | ACTATCTC | -0.0375
52 | CGTATGTC | -0.0518
53 | GTTTCTAA | 0.049
54 | CAGTGCAA | -0.156
55 | GTTTACTA | -0.05
56 | GGCGTTTA | 0.0879
57 | TACACCCA | -0.0256
58 | CAAATTTG | 0.137
59 | ACCAGTCA | 0.0783
60 | ATAAATTA | 0.0132
61 | CACCATAC | 0.0816
62 | GTTGACGA | -0.0981
63 | ATAATAGG | -0.0143
64 | ATCATGTC | 0.0861
65 | ACTGTACT | -0.348
66 | CAGAGGGG | -0.154

Row | Sequence | PBM E-score
67 | CTCTATTA | -0.18
68 | AAGGCTAG | -0.127
69 | ACCCTGTA | -0.129
70 | CGTTGGCC | -0.00629
71 | ATCGTTAA | 0.0445
72 | CTATTTTA | -0.133
73 | CCTGGTAC | -0.249
74 | AGTGGTCC | 0.118
75 | GTAATGTA | -0.14
76 | CCAACAAG | -0.266
77 | CGTTACAG | -0.198
78 | AGGGTTCA | -0.219
79 | GTTACACA | -0.234
80 | ACATCTTA | -0.362
81 | AATTTCAC | -0.0325
82 | ACTCGTCT | -0.126
83 | AAGCACTC | 0.0131
84 | GCGGAGCA | 0.149
85 | CGCATAGC | -0.0407
86 | ACGAAGAT | -0.157
87 | ACACTGTC | -0.0962
88 | CCCACGAC | -0.111

Row | Sequence | PBM E-score
89 | TCGGGGAA | 0.33
90 | CCAACTCC | 0.0984
91 | AATTGAGC | -0.195
92 | CGGGTTAG | 0.148
93 | AAGGTCAG | -0.247
94 | AGTCCGCG | -0.00197
95 | GAGTGAGC | -0.159
96 | CGAGGGAA | -0.00481
97 | CTATTGGC | -0.117
98 | GGGAACAA | 0.225
99 | GATTAATA | -0.0505
100 | GGGGAATA | -0.0405
101 | TAAAACAA | -0.199
102 | ATAACGAC | -0.152
103 | CCAACGAC | -0.302
104 | ACCAGACC | 0.0485
105 | GAGAATTA | 0.103
106 | AGAATCCA | -0.227
107 | ACCTCCGG | 0.327
108 | CGACTCGC | -0.0581
109 | GATTAGTA | -0.0413
110 | AAGATATT | -0.00091
